Among the data in article PMC10726135 are binding signal (log2 normalized intensity) values, retold here.

Some of the results follow. At the low end of the ranking the order means little. Measured with an extract: partners may take part in the binding.

For the experiment, the target named is T1, HNF4alpha8 (COS-7 nuclear extract) (UniProt P41235-5).
T1 sequence: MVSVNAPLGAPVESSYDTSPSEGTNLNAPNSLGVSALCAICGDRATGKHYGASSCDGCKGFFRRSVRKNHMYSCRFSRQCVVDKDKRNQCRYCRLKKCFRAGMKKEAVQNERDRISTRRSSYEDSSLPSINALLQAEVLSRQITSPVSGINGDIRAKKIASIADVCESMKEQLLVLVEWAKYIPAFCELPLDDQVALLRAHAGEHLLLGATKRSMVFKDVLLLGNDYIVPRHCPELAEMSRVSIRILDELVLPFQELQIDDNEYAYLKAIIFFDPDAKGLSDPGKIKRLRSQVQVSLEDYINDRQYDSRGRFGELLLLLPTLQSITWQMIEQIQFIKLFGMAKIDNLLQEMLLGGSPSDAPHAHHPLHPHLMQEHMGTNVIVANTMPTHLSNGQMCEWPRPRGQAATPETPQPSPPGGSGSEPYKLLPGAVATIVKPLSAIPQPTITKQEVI
As to the kind of experiment: protein-binding microarray. To be noted: COS-7 nuclear extract on double-stranded Agilent 4x180k PBM; binding buffer, salt, pH and temperature not given; high values mean tight binding; double strand, one strand shown; sequences stand for … in …GCCTAGGGAGATTAGAGTATCGGTCGA
In the case of CAGCTGGGCTTGTTCAAATAACAGCAACAT, the binding signal (log2 normalized intensity) is -1.32.

In the case of TCCAAAATACGACCTTTGGACAGGGTGACG, the binding signal (log2 normalized intensity) was found to be 7.56.

Take GCATTATCAGGCAAGGGTGGTGACAAAGAC: the binding signal (log2 normalized intensity) is -1.17.

With CAACTCAGAGACAGGGATTGGTTCTCAACA, the binding signal (log2 normalized intensity) was -1.29.

For GTTGTGGAATGTGCTTGGACCTGCTCTGTT, the binding signal (log2 normalized intensity) came to 2.33.

As for TGGTTTCTGTTTGAGGGGAAGAGAGTATGG, the binding signal (log2 normalized intensity) was -0.41.

On to GTTCCGTGTTCCAGAGCCTCCAAAGTCCGC, for which the binding signal (log2 normalized intensity) turned out to be 2.8.

Turning to CTGGGGCCTCCTGGCTGGGCAGGCTCCCTC, the binding signal (log2 normalized intensity) was -1.26.

Turning to TATCTTCTTTCAGTGTTGACCTTTGAACAT, the binding signal (log2 normalized intensity) worked out at 9.23.

For the sequence CAATCCGCATCTTTTATAAGGGGCAGCAAA, the binding signal (log2 normalized intensity) came to 0.937.

As for CACAGCTAAGAGCCGCAGAGCTAATGTTCA, the binding signal (log2 normalized intensity) is -1.29.

With TGACAGTGTGTACATAACAATGCAAGATAA, the binding signal (log2 normalized intensity) was determined as 0.118.

For GAGAAATCTAGGCTGATAAGACACATTCCA, the binding signal (log2 normalized intensity) is -0.889.

In the case of CCACTCTCATGGTCAATATTTTCTTTGTGC, the binding signal (log2 normalized intensity) was found to be 1.06.

On to AAGGGAGAAATTGCGCTAACCAGATGGTAG, for which the binding signal (log2 normalized intensity) was -1.22.

On to CAGAAAGTGATGGGCTGGACTAAGAGTAGC, for which the binding signal (log2 normalized intensity) is -1.27.

In the case of CATTAGACAGAAACCAAGCTGTCCGACTGC, the binding signal (log2 normalized intensity) is -1.35.

Take ACCCTTTGAGTCCTTCATGGCTACCCTTCA: the binding signal (log2 normalized intensity) was 0.993.

Regarding CCATCTCGTCCCGTCAATCTGCAGCCGCCG, the binding signal (log2 normalized intensity) is -1.33.

With CTCTCCAAGCCAGAAAGATGTTTGCCCCAA, the binding signal (log2 normalized intensity) was determined as 2.94.

On to TATTTGCTCACCAGTGACCAATAATGTAAT, for which the binding signal (log2 normalized intensity) worked out at 0.199.

Take AATCCATTGTCAATACCCTGTTATTAGTCC: the binding signal (log2 normalized intensity) was determined as 1.71.

For CTCCCACCTTCGAGCTTCACCTTTGTCCTC, the binding signal (log2 normalized intensity) came to 5.83.

GGGGCTGCCGGGAAAGGCATACGTGCTTAA: the binding signal (log2 normalized intensity) is -1.4.

Regarding TCAGGACTCTAACTGGCTTTAAGAGGAATG, the binding signal (log2 normalized intensity) was -1.32.

With CCCTTGGCCCCGCTGTCCTGATCCCTGAGG, the binding signal (log2 normalized intensity) is 1.69.

Regarding ATTTCCAAGACCTCTTTGCGGATAGATATG, the binding signal (log2 normalized intensity) is -0.569.

As to TACTCTAGTACTAGGCAGCATAGGGCCACT, the binding signal (log2 normalized intensity) is -1.26.

With TTATCAGGTCTTTCTTTCAGAACAGAGCCC, the binding signal (log2 normalized intensity) turned out to be 0.823.

For GACTCATTATCCCCCGCAACTATTTATGAG, the binding signal (log2 normalized intensity) came to 2.92.

For GGTTGGCGCCAATACCTGCCGCGCGGGGCG, the binding signal (log2 normalized intensity) is -1.39.

With CTAGCCGCTCCTCCCACGTCGCTGCCGCAG, the binding signal (log2 normalized intensity) is -1.47.

Turning to GATATTCAGACCTCTTTGAGGCCTTCGTTG, the binding signal (log2 normalized intensity) is -1.48.

In the case of AAAAAGCTTTTGTCATGACCTTCGCTCTTG, the binding signal (log2 normalized intensity) amounted to 6.44.

Take GTCACCAAAGCAAGCAGATGATATGTGATG: the binding signal (log2 normalized intensity) was -0.0564.

Regarding GGGCAGGTGGAGGTGGGATACTGGGAGGGA, the binding signal (log2 normalized intensity) is -1.32.

With TTGGTTGGAGAAAGCAGCCAACCAGAGGCT, the binding signal (log2 normalized intensity) is -1.28.

Turning to TTCAAAGGTTATCTGCTGGCAGAATTCCTT, the binding signal (log2 normalized intensity) was -0.0419.

Consider TGTTGATAAAGTGATTAGTGCAAGAATCCA, for which the binding signal (log2 normalized intensity) is -1.17.

TGGAAAAACCACACACTCCATAACTTTGGG: the binding signal (log2 normalized intensity) was -1.3.

With GAGTCCAAACTGGGACCTGTGACACTCTGC, the binding signal (log2 normalized intensity) is 0.644.

As to AGATCCTCTAAATTCCAGGGCTGGGTCCAG, the binding signal (log2 normalized intensity) came out at 2.8.

For TTGGGCCAGTCGCTTAACCTCTTGATCCTG, the binding signal (log2 normalized intensity) amounted to 2.24.

Take GTTCATTTGCACTTGTTTTTTCAGGTGTTG: the binding signal (log2 normalized intensity) is 2.04.

GCCTCCCTCCTTCCGCGGACGTGTTCCCAC: the binding signal (log2 normalized intensity) amounted to 1.4.

As to GCCCAGATAAGAACTGCAAGGCTAGAGATT, the binding signal (log2 normalized intensity) was -1.32.

TTAAGATTTGACCCTTGGCCAGGTGCAGTG: the binding signal (log2 normalized intensity) worked out at 5.41.

For CTTTGGCTCCAGAGTCCACATTCTTAAACG, the binding signal (log2 normalized intensity) came to 2.75.

Turning to GGAGGAGGTCAAAGTGCAACTACAAGGAGC, the binding signal (log2 normalized intensity) is 5.67.

As for CTGAGACAACACTCAGGATACCTAAGCCCC, the binding signal (log2 normalized intensity) worked out at 1.33.

Regarding TCCATCTAGCAGCCCCAACCCACTGTTGCC, the binding signal (log2 normalized intensity) came out at 2.76.

For GAGGAGCTAACAGTAAAACTGAGATCTAAG, the binding signal (log2 normalized intensity) was -1.23.

For TGGGCCCACAGATGATCAAAGGTCAGTCTT, the binding signal (log2 normalized intensity) is 7.25.

On to TAAGGTTCCAGCAAAGAGATTAGGACACAG, for which the binding signal (log2 normalized intensity) was -1.33.

Regarding AGCATGCGGTAAAGAAGCCAGCCAAATCCC, the binding signal (log2 normalized intensity) is -1.32.

For CTTCTCATACTACTGTACTTTGCTCTCAGC, the binding signal (log2 normalized intensity) was 5.32.

Regarding ACCAGGATAGGGAGGGGTAAGGGTGGGGGT, the binding signal (log2 normalized intensity) is -1.22.

With TTCCCCCTCCCTGGACTCCTGGGACTTATT, the binding signal (log2 normalized intensity) is 3.55.

Take CATTCAAAGCCTAGGCTCCAGGGCACTGCC: the binding signal (log2 normalized intensity) is -1.43.

In the case of AGTGGTTTCAAGGTGACCCCACGGAGCTGC, the binding signal (log2 normalized intensity) worked out at 3.

For GGGAAGCAGTGAGGGTGGGTTCAAAGGTCA, the binding signal (log2 normalized intensity) came to 8.86.

For the sequence GAAATTCTGGCCAACCAGCACTTCTGGAGG, the binding signal (log2 normalized intensity) is -1.32.

With AGAAATAGCATCACGAAAGGCAACATCTTG, the binding signal (log2 normalized intensity) is -1.34.

Take TCCGGCTGGCCTTCCCTCCTCCCTCCGTCT: the binding signal (log2 normalized intensity) was 2.13.

For TCGCGAGAGAACTGAAAAAGGGGACCGGCC, the binding signal (log2 normalized intensity) was -1.24.

With TATTTGGAACCAAGAGCAGATTTGTTTGCT, the binding signal (log2 normalized intensity) is -1.29.

With CTGAAGTCTCAAAGTTCACCACTTTTGCAA, the binding signal (log2 normalized intensity) turned out to be 2.83.

As for GAATGTTGAACCTTTCTTTGTCTTTGCAAT, the binding signal (log2 normalized intensity) was found to be 1.98.

Turning to AGATTCGGTGAGGGATTGTTTAGGTACAAA, the binding signal (log2 normalized intensity) is 1.25.

GAGATGGAATCTTGCCCTGTCGCCCAGGCT: the binding signal (log2 normalized intensity) is 0.395.

For the sequence AGAATAAACGCTGAAGTCTCAAAGTTCACC, the binding signal (log2 normalized intensity) worked out at 4.43.

For ATGTACATGTGCAAAAGCACCCAAGGCTCT, the binding signal (log2 normalized intensity) was -1.36.
